Laboratory results reported in the supplement of paper PMC11181314.
The list shows a part of the results. Single values of this set are uncertain.

What follows are compounds tested on U2OS (assay: Cell Painting induction (percent of morphological features significantly changed vs DMSO); higher = stronger morphological change). Conditions: 10 µM; 20 h; run: primary screen (compounds selected for induction >=10%).
Description: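 Cell Painting assay in U2OS cells: compounds at 10 µM for 20 h, six dyes, 579 robust CellProfiler features as Z-scores vs DMSO median (MAD). Induction is the % of significantly changed features (active if ≥5%); relative cell count is in % of DMSO. The primary run holds DCM compounds preselected for induction ≥10%; the confirmation repeat defines active compounds (370 of 549). Replicate agreement is low, attributed to precipitation.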
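Also: stains mark DNA, RNA and nucleoli, ER, actin, Golgi, plasma membrane and mitochondria, read by high-content imaging, with DMSO controls at matching solvent concentration.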

Compound | Cell Painting induction [%]
Cc1cccc(N2CCN(C(=O)c3ccc(CNc4c(N5CCC(C)CC5)c(=O)c4=O)cc3)CC2)c1C | 17.3
COc1cc(OC)c(OC)cc1CN1CCC(N2CCN(c3ccccc3)CC2)CC1 | 24.7
COc1ccc(NC(=S)N/N=C/c2cccn2Cc2ccccc2F)cc1 | 12.8
CC(C)c1ccc(NC(=O)c2cc(S(=O)(=O)N3CCN(c4ccccc4)CC3)ccc2F)cc1 | 16.4
CCOc1ccc(NC(=S)NCCN2CCN(Cc3ccccc3)CC2)cc1 | 38.9
CC(C)CCOc1cccc(C2c3c(oc4ccccc4c3=O)C(=O)N2CCCN2CCOCC2)c1 (stereo unspecified) | 22.5
C=CCOC(=O)C1=C(C)N=C2SCCC(=O)N2C1/C=C/c1ccccc1OC (stereo unspecified) | 22.3
CCOc1ccc(N(CC)C(=O)c2nn(-c3ccc(OC)cc3)c(=O)c3c2c2ccccc2n3C)cc1 | 15.4
CCCN(CCC)CCCNC(=O)c1ccc2c(c1)N(CC)C(=O)c1ccccc1S2=O (stereo unspecified) | 13.8
CCOc1ccc(NC(=O)c2nnn(CC(=O)Nc3ccccc3OCC)c2N)cc1 | 21.1
Cc1ccccc1-c1nc(S(=O)(=O)c2ccccc2)c(NCCCN2CCOCC2)o1 | 33
COC(=O)c1cccc(Oc2nc3c(c(=O)n(C)c(=O)n3C)n2Cc2ccc(C)cc2)c1 | 11.1
O=C(NCc1ccc(F)cc1)c1cccc2c1C(=O)N(Cc1cccnc1)C2 | 12.6
CN(CCCNC(=O)c1nn(C)c2c1CS(=O)(=O)c1ccccc1-2)Cc1ccccc1 | 13
O=C(NCCN1CCC(Cc2ccccc2)CC1)C1CCN(S(=O)(=O)N2CCC3(CC2)OCCO3)CC1 | 22.3
CC(C)(C)OC(=O)N1CCC(c2c(C(=O)NCC3CCN(C4CCCC4)C3)cnn2-c2ccccc2)CC1 (stereo unspecified) | 43
CO/C(O)=C1\C(C)=Nc2ncnn2C1c1ccc(OC(=O)c2ccccc2)cc1 (stereo unspecified) | 11.7
Cc1ccc(NC(=N)Nc2nc(O)cc(CSc3ccc(C)cc3)n2)cc1 | 41.5
CCN(CCCNC(=O)CN1C(=O)COc2ccc(S(=O)(=O)N3CCC(C)CC3)cc21)Cc1ccccc1 | 37.3
O=C(c1noc2c1CCCCC2)N1CCN(C(c2ccccc2)c2ccccc2)CC1 | 15.5
COc1cc(CNCCCN2CCOCC2)cc(Cl)c1OCC(=O)NC(C)(C)C | 19.7
